The whole screen tested about 50,000 compounds, of which about 800 (1.6%) showed an effect of 50% or more. The list shows a part of the results.

The target in this assay is Bcl-2-like protein 10 (Homo sapiens) (UniProt Q9HD36). Put plainly: TR3 peptide-Bcl-B binding displacers, biochemical primary FP assay, phenotype converters (AID 1240).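 Further: 0% = Bcl-B with tracer peptide and DMSO and 100% = tracer peptide lacking Bcl-B.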 The conditions noted are these: GST-Bcl-B / FITC-TR3 peptide fluorescence polarization; stronger effect = higher value; compound at 3.75 mg/L. In general terms: In fluorescence polarisation assays a small probe gives low polarisation when free and higher when bound to something large.
UniProt Q9HD36, sequence (Q9HD36 whole entry, looked up): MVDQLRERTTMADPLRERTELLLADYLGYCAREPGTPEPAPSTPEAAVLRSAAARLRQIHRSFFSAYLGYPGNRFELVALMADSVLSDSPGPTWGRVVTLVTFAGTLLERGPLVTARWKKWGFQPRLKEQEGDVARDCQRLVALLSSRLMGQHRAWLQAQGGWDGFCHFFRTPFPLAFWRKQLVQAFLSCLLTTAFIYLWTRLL
For `COCc1cc(C(C)(C)C)c(O)c(O)c1C(C)(C)C`, the displacement was determined as 26%.
For `COC(=O)c1sc2nc(-c3ccccc3)nc(N)c2c1C` the value was -12.3%.
For `Cc1ccc(N(Cc2ccc(C(=O)Nc3cc(Cl)ccc3C)cc2)S(C)(=O)=O)cc1C` the value was -2.5%.
For `Cc1cc(C)c(NC(=S)NC(=O)/C=C/c2ccccc2)c([N+](=O)[O-])c1` the value was 11.6%; for `COc1cc(/C=C2/C(=O)NC(=O)N(c3ccc(C(C)C)cc3)C2=O)cc([N+](=O)[O-])c1O`, -6.4%; for `O=c1[nH]c(Nc2nc3ccccc3o2)nc(O)c1Cc1ccccc1`, 0.7%.
On to `Cc1cc([N+](=O)[O-])ccc1N/C=C/C(=O)c1ccc(Br)cc1`, for which the displacement came out at 18.4%.
For `COc1ccc(CCN2C(=O)CSC2c2ccc(Cl)cc2)cc1OC` (stereo unspecified) the value was -11.5%; for `COc1ccc(CNCc2ccccc2Cl)cc1OC`, -13.1%; for `O=[N+]([O-])c1ccc2c(c1)C1C=CCC1C(c1cccc(Cl)c1Cl)N2` (stereo unspecified), 4.5%.
For `C=COCCNC(=O)C(=O)Nc1cccc(C)c1C` the value was -2.5%; for `O=C(NC(Cc1ccccc1)C(=O)NCCc1c[nH]c2ccccc12)OCc1ccccc1` (stereo unspecified), 12.8%.
For `O=C(NCc1ccco1)/C(=C/c1ccc([N+](=O)[O-])cc1)NC(=O)c1ccccc1Cl` the value was -4.6%; for `COc1cc(C2SCC(=O)N2Cc2ccco2)cc([N+](=O)[O-])c1O` (stereo unspecified), -11%.
In the case of `O=C(NC(=S)Nc1ccc2oc(-c3ccccc3Br)nc2c1)c1ccccc1Cl`, the displacement is -4.9%.
`Cc1ccccc1OCCNC(=O)c1cccc2ccccc12`: the displacement was found to be 1.1%.
Turning to `CCOc1ccccc1NC(=O)CCCOc1ccc(Cl)cc1Cl`, the displacement is 13.5%.
Consider `O=C(Nc1ccccc1C(=O)Nc1ccc(Br)cc1)c1ccccc1`, for which the displacement came out at 3%.
With `COc1ccc(-c2nnnn2C)cc1S(=O)(=O)Nc1cccc(C(F)(F)F)c1`, the displacement came to 11.3%.
For the molecule `Cc1cccc(OCCCn2ccnc2)c1`, the displacement is -2.2%.
Turning to `CCOc1ccc(-n2nc3ccc(NC(=S)NC(=O)c4ccco4)cc3n2)cc1`, the displacement was 11.6%.
For `c1ccc(C2CCC(N3CCN(Cc4cccnc4)CC3)CC2)cc1` (stereo unspecified) the value was -0.2%; for `O=C(NN1C(=O)/C(=C/c2ccccc2Cl)SC1=S)c1ccccc1O`, 16.5%.
For `COc1ccc(CCN2C(=O)/C(=C/c3c(NCCCn4ccnc4)nc4c(C)cccn4c3=O)SC2=S)cc1OC` the value was -1.5%; for `CC(=O)NC1=NC(=O)/C(=C\c2ccc3c(c2)OCO3)S1`, 130%; for `COc1ccc(NC(=O)CCCN2C(=O)c3cccc4cccc(c34)C2=O)cc1`, -2.9%.
As for `OCCNCCCOc1cc(Cl)ccc1Cl`, the displacement was 0.7%.
For `COc1cccc(NS(=O)(=O)c2c(C)cc(C)cc2C)c1` the value was 1.6%; for `Cc1ccc(NC(=O)CN(c2c(C)n(C)n(-c3ccccc3)c2=O)S(=O)(=O)c2ccccc2)cc1`, 9.3%; for `C=CCN1C(=O)/C(=C/c2ccc(OC(=O)C34CC5CC(CC(C5)C3)C4)c(OC)c2)SC1=S`, 0.6%.
For `Cc1cc(C)c(NC(=O)COc2ccc(C)cc2C(C)(C)C)c(C)c1` the value was -1.3%; for `CCn1c(C(O)(c2ccccc2)c2ccc(C)cc2)nc2ccccc21` (stereo unspecified), -4.8%; for `Cc1ccc(NC(=O)CS(=O)(=O)c2ccccc2)cc1`, 16.1%.
For `CCN(CC)S(=O)(=O)c1ccc(NC(=S)Nc2ccccc2)cc1` the value was -5.6%.
Regarding `COc1ccc(COC(=O)NNC(=O)c2ccccc2Cl)cc1`, the displacement is -1.8%.
For `CC(C)CCCC(C)CCOC(=O)CN1CCCC1` (stereo unspecified) the value was 5.3%.
For `CSc1ccc(/C=C(/NC(=O)c2ccccc2)C(=O)N2CCOCC2)cc1` the value was -6.6%; for `CC(C)=N/N=C1/NC(=O)C(CC(=O)Nc2ccccc2Br)S1` (stereo unspecified), -22.4%; for `CCOC(=O)c1ccccc1NC(=O)CN(c1ccc(OC)c(Cl)c1)S(C)(=O)=O`, 3.9%.
As for `O=C(CSc1nc2sc3c(c2c(=O)[nH]1)CCCC3)NCc1ccccn1`, the displacement is -0.6%.
For the molecule `CCOC(=O)C1=C(N)OC2=C(C(=O)CCC2)C1c1ccc(C)cc1C` (stereo unspecified), the displacement came out at 3.3%.
`CC(=O)NNC(=O)COc1ccc(Br)cc1`: the displacement came to 10.6%.
For `COc1ccc(CN=Cc2c(O)n(-c3cccc(Cl)c3)c(=O)[nH]c2=O)cc1` the value was 81.4%.
Turning to `CCCCOc1ccc(S(=O)(=O)n2ccnc2C(C)C)cc1`, the displacement was found to be 2.9%.
For `O=[N+]([O-])c1ccc(S(=O)(=O)N/N=C/c2ccc3c(c2)OCO3)cc1` the value was 6.1%; for `CCOC(=O)c1ccc(NS(=O)(=O)c2cc(C(=O)Nc3ccccc3)ccc2C)cc1`, -8.1%; for `NNC(=O)/C(=C\c1ccc(Cl)cc1)NC(=O)c1ccccc1`, -4%.
For `COc1cccc(/C=C(\C#N)c2nc3ccccc3[nH]2)c1OCC#N`, the displacement is 14.5%.
For `CC(C)NC(=O)CN(c1cccc(Cl)c1)S(C)(=O)=O` the value was 4.5%; for `CN(Cc1ccccc1)C(=O)c1ccc([N+](=O)[O-])cc1Cl`, -12.3%.
For `CC(NC(=O)CN(c1ccc(F)cc1)S(=O)(=O)c1ccccc1)c1ccccc1` (stereo unspecified) the value was -6.4%.
For `COc1ccc(/C(O)=C2/C(=O)C(=O)N(CCCCCC(=O)O)C2c2cccc([N+](=O)[O-])c2)cc1` (stereo unspecified) the value was -14.6%.
With `O=C1CSC(c2ccc(F)cc2)N1CCN1CCCCC1` (stereo unspecified), the displacement is 1%.
For `COc1ccc(OCCn2c(=O)c3cc4c(=O)n(CCOc5ccc(OC)cc5)c(=O)c4cc3c2=O)cc1` the value was -7.3%; for `CC(C)(C)C(=O)Nc1ccc(C(=O)Nc2cccc(I)c2)cc1`, 9.7%.
As to `O=C1NC(=Nc2ccc(Br)cc2)S/C1=C\c1ccccc1[N+](=O)[O-]`, the displacement is 14.8%.
For `N/C(=N\OC(=O)/C=C/c1ccccc1)c1ccc(Br)cc1` the value was -2.7%; for `O=C(Nc1ccc(F)c([N+](=O)[O-])c1)c1ccc(OCc2ccccc2)cc1`, 16.9%; for `O=C(O)c1ccc(-n2ncc(Cl)c(Cl)c2=O)cc1`, 11.4%.
As to `COc1ccc(Br)cc1Cn1c(=O)[nH]c2cc([N+](=O)[O-])ccc21`, the displacement is -4.5%.
For `COc1ccc(COC(=O)C2=C(C)NC3=C(C(=O)CCC3)C2c2coc3ccc(C)cc3c2=O)cc1` (stereo unspecified) the value was -5.1%; for `Cc1ccc(-n2c(C)cc(/C=C3\NC(=S)NC3=O)c2C)cc1C`, -1.9%; for `COc1ccc(C(=O)c2cnc[nH]2)cc1`, 0.3%.
For `Cc1ccc(C(=O)N/C(=C/c2ccco2)c2nc3ccccc3[nH]2)cc1` the value was 0.8%; for `CCN1CCN(C(=O)c2cc([N+](=O)[O-])cc([N+](=O)[O-])c2)CC1`, 10.6%.
For the molecule `COc1cc(OC)cc(C(=O)N2CCN(Cc3ccccc3[N+](=O)[O-])CC2)c1`, the displacement was 8.4%.
For `COC(=O)Nc1ccc2c(c1)N(C(=O)CCN(C)C)c1ccccc1CC2`, the displacement is -0.3%.
For `Cc1c(Cc2ccccc2)c(=O)oc2c(C)c(OCC(=O)N(C)C)ccc12` the value was 8.9%; for `Cc1cc(-c2ccco2)c(C#N)c(=S)[nH]1`, 4%.
For `COc1ccc(OC)c(CNc2cc([N+](=O)[O-])ccc2OC)c1` the value was -26.7%.
For `CCc1cc(C)cc(OCCOc2ccc(/C=C3/SC(=S)N(C)C3=O)cc2)c1` the value was 6.7%.
As to `NC(=O)c1cc(NC(=O)COc2ccc(F)cc2)c(Cl)cc1Cl`, the displacement was -4%.
For `O=C(N/N=C\c1cc(Br)ccc1O)c1cnccn1` the value was -10.7%; for `Cc1ccc(N(CC(=O)N(Cc2ccccc2)Cc2ccccc2)S(C)(=O)=O)cc1Cl`, 14.5%; for `COc1ccc(CN2CCN(C3CC4CCC3C4)CC2)c(OC)c1OC` (stereo unspecified), -2.9%.
For `Cc1ccc(S(=O)(=O)N(Cc2ccccc2)c2ccccc2C(=O)Nc2ccc(C)c(C)c2)cc1` the value was 3.2%; for `COc1ccc(C2=Nc3ccccc3NC(c3ccc(F)cc3)C2)cc1` (stereo unspecified), -52.4%; for `COc1ccc(C(=O)/C=C/Nc2ccccn2)c(OC)c1`, -8%.
For `CCOc1ccc(N(CC(=O)N2CCN(c3ccccc3OC)CC2)S(C)(=O)=O)cc1` the value was -1.6%; for `O=C(Nc1sc2c(c1C(=O)O)CCCCC2)c1cccs1`, -10.6%.
Consider `COc1ccc(C2CC(=O)C3=C(C2)Nc2ccccc2NC3c2cc(OC)c(OC)cc2Br)cc1` (stereo unspecified), for which the displacement was 14.5%.
For `Cc1ccc(NC(=S)NC(=O)/C=C/c2ccccc2)c(C)c1` the value was 1.1%; for `O=[N+]([O-])c1cccc(/C=N/Nc2ccc3nnnn3n2)c1`, 0.8%.
For `O=C(c1nn2c(C(F)(F)F)cc(-c3ccccc3)nc2c1Cl)N1CCCC1` the value was 22.7%.
For `O=C(CSc1nnc(SCC(=O)c2ccc(F)cc2)n1-c1ccccc1)c1ccc(F)cc1` the value was 12.2%; for `Cc1ccc(-c2nc(N/N=C/c3cccnc3)c3ccccc3n2)cc1`, 6.5%.
For the molecule `CCOc1cc(OCC)cc(C(=O)Nc2ccc3oc(-c4cccc(F)c4)nc3c2)c1`, the displacement was 6.3%.
For `CC(=O)N(CCCN(C)C)Cc1ccc2c(c1)OCO2` the value was -5.3%.
As to `CCNC(=S)N1CCN(c2ccccc2OC)CC1`, the displacement turned out to be 14.8%.
For `CCOC(=O)C1=C(C)N=c2s/c(=C\c3ccc([N+](=O)[O-])cc3)c(=O)n2C1c1ccc(Cl)cc1` (stereo unspecified) the value was 9.2%; for `Cn1c(=O)c2c(nc3n2CC(=O)N3c2cccc(Cl)c2)n(C)c1=O`, -5.8%; for `CC(=O)c1ccc(NC(=O)CSCC(=O)Nc2ccccc2)cc1`, 7.5%.
For `COc1ccc(NC(=O)C23CCC4CC(CC(C4)C2)C3)cc1` the value was 11.3%.
For `CC(=C/c1ccccc1)/C=N/NC(=O)CSc1n[nH]c(=O)[nH]c1=O` the value was -1.5%.
`COc1ccccc1OCCOc1ccccc1/C=N/n1cnnc1`: the displacement is 5.1%.
For `O=C(NC1CCCCC1)Oc1ccc2oc(=O)sc2c1` the value was 11.5%; for `CCOc1ccc(/C=C2\C(=O)NC(=S)N(c3cccc(Br)c3)C2=O)cc1Cl`, 13.4%.
For `O=C(c1ccccc1)c1ccccc1N/C=C/[N+](=O)[O-]` the value was 15.1%.
For `CC1=C(C)CC2C(=O)N(c3ccc(C(C)C)cc3)C(=O)C2C1` (stereo unspecified) the value was -9.6%.
Turning to `Cc1ccc(NC(=O)CN(c2cc(Cl)cc(Cl)c2)S(C)(=O)=O)c(C)c1`, the displacement was 24.8%.
For `O=[N+]([O-])c1ccccc1N1CCCCC1` the value was -12.9%; for `COc1ccc(C(=O)CC(Sc2ccccc2NC(C)=O)c2cccc(Br)c2)cc1` (stereo unspecified), 3.3%; for `COc1ccc(N2C(=O)c3ccc(-c4nc5ccccc5c(=O)o4)cc3C2=O)cc1OC(C)=O`, -6%.
For `CCC1=NN(C(=O)c2cccc(O)c2)C(O)(c2ccncc2)C1` (stereo unspecified) the value was 8.1%.
For `O=C(Nc1ccc(NS(=O)(=O)c2cc(Cl)c(Cl)cc2Cl)cc1)c1ccccc1` the value was -12.6%; for `Brc1ccc(/C=N/n2c(-c3ccccc3)nnc2-c2ccccc2)cc1`, 31.4%.

The values above are taken from PubChem BioAssay AID1240 (Sanford-Burnham Center for Chemical Genomics, 2008).
